# Experimental data: PubChem BioAssay AID485294 (National Center for Advancing Translational Sciences (NCATS), 2010)
# Among all 370,000 compounds or so, about 150 (0.041%) were called active. The inconclusive results got no clear call from the source; some entries with a clear call stand among them for comparison. The call rests on the fitted dose curve; in most records, active means well fitted inhibition curve with a large enough effect; inconclusive means small, poorly fitted or top-dose-only effect; inactive means flat fitted curve, though single readings scatter. No potency is given beside an inconclusive call; the fits are too rough.
# Biological target: Beta-lactamase (Escherichia coli (strain K12)) (UniProt P00811)
# Chain of UniProt P00811 (P00811 whole entry, looked up): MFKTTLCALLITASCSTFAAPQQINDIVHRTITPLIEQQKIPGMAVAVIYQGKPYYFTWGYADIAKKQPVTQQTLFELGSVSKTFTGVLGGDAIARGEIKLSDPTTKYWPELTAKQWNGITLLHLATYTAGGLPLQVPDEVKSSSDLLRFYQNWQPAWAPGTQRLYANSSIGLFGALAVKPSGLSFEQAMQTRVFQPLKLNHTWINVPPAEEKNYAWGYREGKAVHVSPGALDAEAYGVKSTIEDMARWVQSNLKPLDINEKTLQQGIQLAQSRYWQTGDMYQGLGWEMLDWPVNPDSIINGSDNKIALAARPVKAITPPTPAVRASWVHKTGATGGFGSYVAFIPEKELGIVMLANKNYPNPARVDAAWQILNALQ
# Assay: qHTS Inhibitors of AmpC Beta-Lactamase (assay with detergent); further: nearly all actives have a fitted effect of over 25% in size;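 on activity change, negative = inhibition: 0% = no-compound wells and -100% = no-enzyme wells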
# Conditions: AmpC hydrolysis of nitrocefin, absorbance 480 nm, 0.01% Triton; activity change, negative = inhibition: at 114 µM (top of the series)
# Method: NIH Molecular Libraries Probe Production Network [MLPCN] NIH Chemical Genomics Center [NCGC] Assay Provider: Professor Brian Shoichet, UCSF Assay Overview: This aggregation profiling approach exploits the sensitivity of aggregate formation to detergent. Inhibition of b-lactamase is measured in the presence and absence of 0.01% Triton X-100. This particular assay had the prescence of 0.01% Triton X-100. See Pubchem assay "Promiscuous and Specific Inhibitors of AmpC Beta-Lactamase (assay without detergent)" for related screen. Compounds that inhibit only in the absence of detergent are considered likely promiscuous aggregators. A screen of 1,030 compounds was performed in Brian Shoichet's lab in 96-well format. AmpC activity was measured by following the absorbance at 480 nm. Nitrocefin is a chromogenic substrate: while nitrocefin is yellow (lmax 390 nm), the product of its hydrolysis is red (lmax 486 nm, 17,000 M-1). AmpC beta lactamase was provided by Shoichet Lab, UCSF.
# Buffer: 20 mM phosphate buffer, pH 7.0 Triton X-100: No Detergent screen: 0.0001%, Detergent screen: 0.01%. Reagents/Controls: Buffer in columns 3 and 4 as negative control (no enzyme). 5.3 nM AmpC in columns 1, 2, 5-48. Titration of UCSF compound 9 control (from 10 mM, then 1:2) pin-transferred to column 2. Column 1 is neutral (100% activity). Assay Steps: Six uL of reagents were dispensed to 1536-well Greiner black clear bottom plates. Compounds and controls (23 nL) were transferred via Kalypsys PinTool. The plates were incubated for 15 min at room temperature, and then 2 uL of 800 uM solution of nitrocefin was added to start the reaction. The plates were immediately transferred to and read every 20 seconds for 4 min on ViewLux (Perkin-Elmer) High-throughput CCD imager using 480 nm absorbance protocol. During dispense, reagent bottles were kept submerged into 4 deg C water bath. Keywords: NIH Roadmap, MLSCN, MLI, MLSMR, qHTS, NCGC, AmpC Beta-Lactamase, Aggregation
# Potency means the concentration at half of the fitted maximal effect; tags describe the fitted curve by direction and shape.
Compound,Potency,"activity change, negative = inhibition"
COc1ccc(OC)c(NC(=O)/C=C/c2ccc(S(=O)(=O)N3CCOCC3)cc2)c1,"inconclusive [inhibitor, partial curve, poor fit]",–
COc1ccc(NC(=S)N(Cc2ccc(C)cc2)Cc2ccccn2)cc1,"inconclusive [inhibitor, partial curve]",–
O=C(CN(c1ccc(Cl)c(C(F)(F)F)c1)S(=O)(=O)c1ccccc1)N1CCc2ccccc2C1,–,inactive: 21.9%
COc1ccc(C(=O)CC(=O)Nc2ccc([N+](=O)[O-])cc2)cc1,"inconclusive [inhibitor, partial curve, poor fit]",–
COc1ccccc1-n1cc(-c2ccc(C)cc2)[nH]c1=S,"inconclusive [inhibitor, full curve, poor fit]",–
O=C(COC(=O)c1ccc(Br)o1)NC1CCCCC1,"inconclusive [inhibitor, full curve, poor fit]",–
CCOC(=O)Cn1c(CN2CCOCC2)nc2c1c(=O)n(C)c(=O)n2C,"inconclusive [inhibitor, partial curve]",–
CC(=O)c1c(C)nc2ccccc2c1N,"inconclusive [inhibitor, full curve, poor fit]",–
O=C(NCC(=O)N(CC1CCCO1)C(C(=O)NC1CCCC1)c1cccnc1)c1ccco1 (stereo not given),"inconclusive [inhibitor, full curve]",–
NC(=S)c1cc2cc(Br)ccc2oc1=O,"inconclusive [inhibitor, single point]",–
Cc1cccc(N2CCN(C(=O)CCCn3c(=O)[nH]c4ccsc4c3=O)CC2C)c1 (stereo not given),"inconclusive [inhibitor, partial curve, poor fit]",–
O=C(Nc1cc(S(=O)(=O)N2CCCCC2)ccc1N1CCOCC1)c1ccc(C(F)(F)F)cc1,–,inactive: 3.94%
CCOc1cc(S(=O)(=O)NCCc2cccc(C)c2)c(OCC)cc1-n1cnnn1,–,inactive: -4.3%
CC(=O)c1ccc(C(=O)N(CCCN(C)C)c2nc3c(C)c(C)ccc3s2)cc1,–,inactive: 1.39%
CC1(C)Cc2c(cnn2-c2ccc(F)cc2)C(NC(=O)c2ccc(=O)oc2)C1 (stereo not given),–,inactive: 3.78%
Cc1cccc(NC(=O)CSCc2nc3c(nnn3Cc3ccc(F)cc3)c(=O)[nH]2)c1C,"inconclusive [inhibitor, full curve, poor fit]",–
Cc1ccc(OCCn2c(CNc3cccc(C)c3)nc3ccccc32)cc1,–,inactive: 10.3%
COc1ccc(N2CCN(C(=O)COC(=O)c3ccc(C)o3)CC2)cc1,"inconclusive [inhibitor, single point]",–

Compound,Potency,"activity change, negative = inhibition"
Cc1ccc(C)c(N2CCN(C(=O)c3ccc(CS(=O)Cc4cccc(Cl)c4)o3)CC2)c1 (stereo not given),"inconclusive [inhibitor, partial curve]",–
Cc1ccc2nc(NC(=O)c3ccc(-c4nc5ccccc5s4)s3)sc2c1,"inconclusive [inhibitor, full curve, poor fit]",–
CCOC(=O)C1CCCN(S(=O)(=O)c2cccs2)C1 (stereo not given),"inconclusive [inhibitor, partial curve]",–
O=C(Cc1cc(=O)oc2cc(O)ccc12)NCC1CCC(C(=O)O)CC1 (stereo not given),"inconclusive [inhibitor, full curve]",–
O=C(CSc1nnc(-c2ccc(Cl)cc2)n1CC1CCCO1)NC1CCS(=O)(=O)C1 (stereo not given),"inconclusive [inhibitor, single point]",–
Cn1ccnc1SCC(=O)c1cccc(Br)c1,"inconclusive [inhibitor, single point]",–
S=C(NN=C(C1CC1)C1CC1)Nc1ccccc1,"inconclusive [inhibitor, full curve, poor fit]",–
CCC1(c2ccccc2)NC(=S)N(c2cccc(C)c2C)N1 (stereo not given),–,inactive: -9.13%
N#Cc1cc2c(nc1Cl)CCC2,–,inactive: 1.94%
COC(=O)c1cn(C(=O)c2cc(Cl)ccc2Cl)c2ccccc12,"inconclusive [inhibitor, full curve, poor fit]",–
CCOC(=O)c1c(/N=C/N(C)C)sc(/C=N/Nc2ccccc2)c1-c1ccc(Cl)cc1,–,inactive: -1.39%
Nc1ccc(-c2nc3ccccc3s2)cn1,–,inactive: -4.83%
CC(NC(=O)CCSc1nc(-c2ccco2)cc(C(F)(F)F)n1)c1ccccc1 (stereo not given),"inconclusive [inhibitor, full curve, poor fit]",–
CC(=O)Nc1ccc(Nc2nc(C)nc3c2oc2ccccc23)cc1,–,inactive: -11.8%
CC(C)CN(C(=O)Cn1c(C(F)(F)F)nc2ccccc21)C1CCS(=O)(=O)C1 (stereo not given),"inconclusive [inhibitor, full curve]",–
Cc1cc2cc(C)c(NCCNC(=O)c3cccs3)nc2cc1C,"inconclusive [inhibitor, single point]",–
O=C(CN1CCN(Cc2ccccc2)CC1)c1ccc(Br)cc1,"inconclusive [inhibitor, full curve, poor fit]",–
